In article PMC9911399, “Two distinct binding modes provide the RNA-binding protein RbFox with extraordinary sequence specificity”:
Changes are numbered by the printed parent chain; changes in the protein carry UniProt numbers. The list shows a part of the results.

T1: RBFOX1 RRM RbFoxmut (Fox-RRM*) (Homo sapiens, UniProt Q9NWB1 109-208, R118D;E147R;N151S;E152T)
T1 sequence: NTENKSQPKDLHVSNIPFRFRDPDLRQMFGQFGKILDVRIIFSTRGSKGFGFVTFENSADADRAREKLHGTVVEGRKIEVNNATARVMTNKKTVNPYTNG

B1: AGCUUCA (DNA:RNA)
RNA: GGGAGACCGGAAUUCAGAUUGUCCAGCUUCAUUAAAUCCCGUCGUAGCCACCA
DNA 1: CAATCTGAATTCCGGTCTCCC
DNA 2: TGGTGGCTACGACGGGATT
B2: UAUUUGC (DNA:RNA)
RNA: B1 RNA with A25U, G26A, C27U, C30G, A31C
DNA 1: CAATCTGAATTCCGGTCTCCC
DNA 2: TGGTGGCTACGACGGGATT
B3: GUCUAAU (DNA:RNA)
RNA: B1 RNA with A25G, G26U, U29A, C30A, A31U
DNA 1: CAATCTGAATTCCGGTCTCCC
DNA 2: TGGTGGCTACGACGGGATT
B4: UCGGUAU (DNA:RNA)
RNA: B1 RNA with A25U, G26C, C27G, U28G, C30A, A31U
DNA 1: CAATCTGAATTCCGGTCTCCC
DNA 2: TGGTGGCTACGACGGGATT
B5: AGUCACC (DNA:RNA)
RNA: B1 RNA with C27U, U28C, U29A, A31C
DNA 1: CAATCTGAATTCCGGTCTCCC
DNA 2: TGGTGGCTACGACGGGATT
B6: CCUCCUC (DNA:RNA)
RNA: GGGAGACCGGAAUUCAGAUUGUCCCCUCCUCUUAAAUCCCGUCGUAGCCACCA
DNA 1: CAATCTGAATTCCGGTCTCCC
DNA 2: TGGTGGCTACGACGGGATT
B7: CAUUGGG (DNA:RNA)
RNA: B6 RNA with C26A, C28U, C29G, U30G, C31G
DNA 1: CAATCTGAATTCCGGTCTCCC
DNA 2: TGGTGGCTACGACGGGATT
B8: GCGUGAC (DNA:RNA)
RNA: B6 RNA with C25G, U27G, C28U, C29G, U30A
DNA 1: CAATCTGAATTCCGGTCTCCC
DNA 2: TGGTGGCTACGACGGGATT
B9: GACCCUC (DNA:RNA)
RNA: B6 RNA with C25G, C26A, U27C
DNA 1: CAATCTGAATTCCGGTCTCCC
DNA 2: TGGTGGCTACGACGGGATT
B10: UUCAGGA (DNA:RNA)
RNA: B1 RNA with A25U, G26U, U28A, U29G, C30G
DNA 1: CAATCTGAATTCCGGTCTCCC
DNA 2: TGGTGGCTACGACGGGATT
B11: CAUUACG (DNA:RNA)
RNA: B1 RNA with A25C, G26A, C27U, U29A, A31G
DNA 1: CAATCTGAATTCCGGTCTCCC
DNA 2: TGGTGGCTACGACGGGATT
B12: UACCCCU (DNA:RNA)
RNA: B1 RNA with A25U, G26A, U28C, U29C, A31U
DNA 1: CAATCTGAATTCCGGTCTCCC
DNA 2: TGGTGGCTACGACGGGATT
B13: GAUGAGC (DNA:RNA)
RNA: B6 RNA with C25G, C26A, C28G, C29A, U30G
DNA 1: CAATCTGAATTCCGGTCTCCC
DNA 2: TGGTGGCTACGACGGGATT
B14: AUAAUGG (DNA:RNA)
RNA: B1 RNA with G26U, C27A, U28A, C30G, A31G
DNA 1: CAATCTGAATTCCGGTCTCCC
DNA 2: TGGTGGCTACGACGGGATT
B15: AUUCGGA (DNA:RNA)
RNA: B1 RNA with G26U, C27U, U28C, U29G, C30G
DNA 1: CAATCTGAATTCCGGTCTCCC
DNA 2: TGGTGGCTACGACGGGATT
B16: AGUCGCG (DNA:RNA)
RNA: B1 RNA with C27U, U28C, U29G, A31G
DNA 1: CAATCTGAATTCCGGTCTCCC
DNA 2: TGGTGGCTACGACGGGATT
B17: ACCUGAC (DNA:RNA)
RNA: B1 RNA with G26C, U29G, C30A, A31C
DNA 1: CAATCTGAATTCCGGTCTCCC
DNA 2: TGGTGGCTACGACGGGATT
B18: CCGGAAC (DNA:RNA)
RNA: B6 RNA with U27G, C28G, C29A, U30A
DNA 1: CAATCTGAATTCCGGTCTCCC
DNA 2: TGGTGGCTACGACGGGATT
B19: GAUGAAC (DNA:RNA)
RNA: B6 RNA with C25G, C26A, C28G, C29A, U30A
DNA 1: CAATCTGAATTCCGGTCTCCC
DNA 2: TGGTGGCTACGACGGGATT
B20: GGGACCC (DNA:RNA)
RNA: B1 RNA with A25G, C27G, U28A, U29C, A31C
DNA 1: CAATCTGAATTCCGGTCTCCC
DNA 2: TGGTGGCTACGACGGGATT

Target: T1, RBFOX1 RRM RbFoxmut (Fox-RRM*)
Assay: EMSA; HiTS-Eq, 1 nM pool, 10 min; buffer printed only for the single-RNA assays: 10 mM Tris pH 7.5, 150 mM NaCl, 3.4 mM EDTA, 0.001% NP-40, 30 C
Settings: tags: His6 N-terminal (pET28a); label: 5' 32P
Method in brief: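 Relative association constants, normalised to the cognate motif, were derived by comparing read counts of each RNA species with those of the control reaction. The RNA sequenced was the free fraction, separated by 8% native PAGE after a 10 min equilibration in 50 µL of 1 nM 5′-radiolabelled RNA (7 randomized nucleotides) with increasing concentrations of purified wild-type or mutant RbFox RRM.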

First: B1
Second: B2
The binding signal of the first is lower: 0.121 KA relative to UGCAUGU for the first, 0.127 KA relative to UGCAUGU for the second.

First: B3
Second: B4
The binding signal of the first is lower: 0.109 KA relative to UGCAUGU for the first, 0.129 KA relative to UGCAUGU for the second.

First: B5
Second: B6
The binding signal of the first is lower: 0.0525 KA relative to UGCAUGU for the first, 0.0903 KA relative to UGCAUGU for the second.

First: B7
Second: B8
The binding signal of the first is lower: 0.067 KA relative to UGCAUGU for the first, 0.09 KA relative to UGCAUGU for the second.

First: B9
Second: B10
The binding signal of the first is lower: 0.0597 KA relative to UGCAUGU for the first, 0.0766 KA relative to UGCAUGU for the second.

Compared with B11, B12 is lower in binding signal: 0.144 KA relative to UGCAUGU for the first, 0.0779 KA relative to UGCAUGU for the second.

First: B13
Second: B14
The binding signal of the first is higher: 0.1 KA relative to UGCAUGU for the first, 0.0842 KA relative to UGCAUGU for the second.

First: B15
Second: B16
The binding signal of the first is lower: 0.0673 KA relative to UGCAUGU for the first, 0.117 KA relative to UGCAUGU for the second.

First: B17
Second: B18
The binding signal of the first is higher: 0.139 KA relative to UGCAUGU for the first, 0.0527 KA relative to UGCAUGU for the second.

Compared with B19, B20 is higher in binding signal: 0.073 KA relative to UGCAUGU for the first, 0.102 KA relative to UGCAUGU for the second.
